Source: publication PMC12136788
This is one part of the list.

T1: UNK ZnF1-3 (human, UniProt Q9C0B0 31-174)
T1 sequence: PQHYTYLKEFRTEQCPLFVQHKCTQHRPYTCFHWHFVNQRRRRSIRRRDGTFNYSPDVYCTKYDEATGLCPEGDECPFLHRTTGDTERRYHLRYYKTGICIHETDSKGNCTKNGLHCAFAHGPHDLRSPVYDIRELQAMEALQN

B1: chr8:109229674:109229675:-_ENSG00000104408_ENST00000220849|hu_hu|FALSE|FALSE (ssRNA)
RNA: GGGAGUUCUACAGUCCGACGAUCGUUUGUUAUGACUGCUGUAGUCAAAUAGCGAAGAAUGUGUGGACACAUUGUCUGAAUUGCAUUAAGAUAUUGUGGCUGAUAAAGGAAGAGGUCAAUAAUAUUAUCGCGACCUUUGGGGUGCAACAGAGGAUUGAGCAUCA
B2: 66262441_66262561_646_CDS_ENSMUSG00000047534_ENSMUST00000052201|mouse|control|control (ssRNA)
RNA: GGGAGUUCUACAGUCCGACGAUCAUAGGUUUGUUGCAACUGAGCUUUCUUAUCCGUGUUAGGAGGAAAGUCUUUGGUGUGUUCACCCUGUGGUGAUCCCAACAUGCUACUGCUCCUUGUCAGUUGUUCUUGUUUGUCACGCUGCAACAGAGGAUUGAGCAUCA
B3: 132215306_132215426_5256_3pUTR_ENSG00000072364_ENST00000265343|human|control|control (ssRNA)
RNA: GGGAGUUCUACAGUCCGACGAUCUCUUCAUUUAAAGGUAAGAUUUAAGGCACACCAAACAUGAUAGGGGCAUGAAAAAUAAAGUAUAGAGGGUACAUUUCUUAUCUUAGACUUCUAUAUGCACCUUGUAGCAAAAGGUACUUUCAACAGAGGAUUGAGCAUCA
B4: chr3:148802587:148802588:-_ENSG00000071794_ENST00000310053|hu_mus|hu_hu_hu_mus_False|1_108 (ssRNA)
RNA: GGGAGUUCUACAGUCCGACGAUCUCCAACCACAUGACCUCUCAUAGUUCCAAAUAAAACCAAAUCUUGCUCUUCAUCACUCGUUAGGAAGUCAUCUGGAGGAAUAAUGUCUUGGAAUUCAAAAUGUGGCAAGAAAGUUGGAUACAACAGAGGAUUGAGCAUCA
B5: chr18:9122563:9122564:+_ENSG00000178127_ENST00000318388|hu_hu|motif|central (ssRNA)
RNA: GGGAGUUCUACAGUCCGACGAUCGACCUGAAUGUGAUACUUUCCAACUGGCUUUCGAUUAUACAUUGUAUAAAAAGUUGCGGCUUCAUAUACUCUCAUUGGAGGUACUUGUAAAACUUCUGCAACCUUGUUCAUAGCAGAGAUCAACAGAGGAUUGAGCAUCA
B6: 88224870_88224990_542_CDS_ENSMUSG00000050144_ENSMUST00000057935|mouse|control|control (ssRNA)
RNA: GGGAGUUCUACAGUCCGACGAUCAUCGAAGGUCCCGUGGUAGAGGCUCUUGCCCUUCUGGACCUGCAGGCGGGUGCGGAUGAGGGUGAACGGGUACACGCUGACCCUGAUCAUCAUUGUCAUAGCAACACCAAACACAUAGAACAACAGAGGAUUGAGCAUCA
B7: chr2:183846084:183846085:-_ENSG00000061676_ENST00000360982|hu_hu|FALSE|FALSE (ssRNA)
RNA: GGGAGUUCUACAGUCCGACGAUCAAGGUACUGCACGUAAUACCUCUGCAUUACAGGUCCGUAUUUCCUCACAUGUGCUCUAAGUUCUUCCAUGUAAAAUAUUAAUUCAGCAAUGUGCUUAUCUAUAAAGUCGUCUGCACUCUUCAACAGAGGAUUGAGCAUCA
B8: chr4:95690885:95690886:+_ENSMUSG00000028572_ENSMUST00000156910|mus_mus|mus_mus_mus_hu_False|88_108 (ssRNA)
RNA: GGGAGUUCUACAGUCCGACGAUCUUUAUUUUUAGAAAAAUACCAUGAGCAUGCUAAUUCAAAGGCUUAUUUUAUUUUACCAGAAGUCACAGGCAAGCAGACACUACAAGAAUAUAUGAAAAUGAAACUCAACAAUAUAACUGUCAACAGAGGAUUGAGCAUCA
B9: chr12:70286429:70286430:+_ENSMUSG00000043998_ENSMUST00000060579|mus_hu|motif|central (ssRNA)
RNA: GGGAGUUCUACAGUCCGACGAUCGCACUCUUGCUGCUUCAGUUUCCACAUCUUUUUGAAGACAUGGUAAAAGUCUGGGGCGGAGUAGUGAUCCUCUUCUAGGAAAAGUAUAAGGCCAGCAUAAUCUCGAAGAAUUUUCACUCUCAACAGAGGAUUGAGCAUCA
B10: chr2:5814250:5814251:-_ENSMUSG00000025816_ENSMUST00000102981|mus_hu|mus_mus_mus_hu_True|38_78 (ssRNA)
RNA: GGGAGUUCUACAGUCCGACGAUCUUCCUUUCCGGUUUCUGAAUUUCUGGUAGAACUGCACAGAAAGGUUUGAUAACUUCUAAAAAUUUGAUGCCCAUGGCGGCGGCUGGGGAGGCCCAGGGGGAAACCGCGGCCUCGGCGCUGCAACAGAGGAUUGAGCAUCA
B11: chr7:56126341:56126342:+_ENSG00000146731_ENST00000540286|hu_mus|hu_hu_hu_mus_True|8_8 (ssRNA)
RNA: GGGAGUUCUACAGUCCGACGAUCCAUGUUUCUCCUCUUGGCUCUGCGCAGAGCUACGAUCCCUUCUUUCGCAAGGGCAUCUAAGGAAAAGGGGUCAAUCCCCUUUUGAUUAAUAACGACAAAUCCUUUAUCUGAAUCACCACACAACAGAGGAUUGAGCAUCA
B12: chr5:128448638:128448639:+_ENSG00000066583_ENST00000173527|hu_mus|hu_hu_hu_mus_False|48_48 (ssRNA)
RNA: GGGAGUUCUACAGUCCGACGAUCGGCACUCGCCUUAAUUAGGUUCUGAAUUUCCUUGAACUUCGGGUGGUCUUUGUCAGCCACCAGCUGAAGCAGAACAGCCUCACUAGUGGUCACGAUGAUCCCAGUGCGGGCAAGACGCUCCAACAGAGGAUUGAGCAUCA
B13: 21805100_21819241_1653_CDS_ENSG00000141447_ENST00000319481|human|control|control (ssRNA)
RNA: GGGAGUUCUACAGUCCGACGAUCCUCUUCAAAGGAGCGUGCUGUCACUGCUUCCAAUCUACUCAGGGACCUUUCGGACUCGGAAUCUGACAGCGCAUCAUAGAACUCGUCCUCGCUAAGGAUGCUGGCGGGUGGAGAGCCUUUCAACAGAGGAUUGAGCAUCA
B14: 55348168_55348288_2700_CDS_ENSMUSG00000021488_ENSMUST00000099490|mouse|control|control (ssRNA)
RNA: GGGAGUUCUACAGUCCGACGAUCUGCCUUUGCCGUUCCAGAAUCACUUACGUCUUCACUUAAUGAUCUGUACGAGAGCUCCUUCAGUUCCGAAAGAACGUGCUUCACCACUGCUGUUUCUAUGUCACUAGAAUCUCUGGUUUUCAACAGAGGAUUGAGCAUCA
B15: chr1:55207850:55207851:+_ENSMUSG00000025979_ENSMUST00000162364|mus_mus|motif|central (ssRNA)
RNA: GGGAGUUCUACAGUCCGACGAUCCCGGUGAUGAAAAUAGGCAUGUGAAAAUAUUCUAUAAAUCCUACGGCACACUGAUCCGGGUUUUGCUACAGAUGAUUCUUUUAUGCUAACCCUGCUGGGAAAAUAUUUAUUGCUAUUCAGCAACAGAGGAUUGAGCAUCA
B16: chr19:29884105:29884106:-_ENSMUSG00000074909_ENSMUST00000099525|mus_hu|FALSE|FALSE (ssRNA)
RNA: GGGAGUUCUACAGUCCGACGAUCAGGGAGAAAACAGUUCUCUGAUUUAUAAUAAAAUCUAUUCACAACACUUAUUUGUAGUUACUUUUAUAAUAGAUAAUAUUCAAGUUAUAUUAAAGUGCUUCAAGCAAAAUUUAGCAACUCCAACAGAGGAUUGAGCAUCA
B17: chr3:87342203:87342204:+_ENSMUSG00000003382_ENSMUST00000170036|mus_hu|FALSE|FALSE (ssRNA)
RNA: GGGAGUUCUACAGUCCGACGAUCCGGAUAUGGAGUGAUUUCUUCUCUCGCUGCUGCGACGCAGAUCUGAGCCACAGUCAGGUACCAAUGUACACGACAUAGGCACAUGUGCAAACACAAAGAAGGUGGGCUGCUGCUUCUUUCCAACAGAGGAUUGAGCAUCA
B18: chr4:136884974:136884975:-_ENSMUSG00000006699_ENSMUST00000030417|mus_mus|FALSE|FALSE (ssRNA)
RNA: GGGAGUUCUACAGUCCGACGAUCCACCCACUUUUCUUUCACAUUUUCAAAUGAGGAUGGAGAGACCACUGAGAAACAUACUAGAAAAACAUCUGUCUGUGGAUAACUUAGCGGUCGUAGUCUGUCAUAAUCCUCUUGCCCUGCCAACAGAGGAUUGAGCAUCA
B19: chr12:111160049:111160050:-_ENSG00000186298_ENST00000335007|hu_mus|FALSE|FALSE (ssRNA)
RNA: GGGAGUUCUACAGUCCGACGAUCAAACUCGCCACAGUAGUUGGGUGCAGAAAACAGAGUGACUAACUGCCUCUUUGCAAAAAACUCAUAGCCAUCUUCAACCACCUGAUGGGCUCUACAUAUAAGAUCCAAAUCAUGCUUAUGCAACAGAGGAUUGAGCAUCA
B20: 108935614_108935734_498_3pUTR_ENSG00000138796_ENST00000309522|human|control|control (ssRNA)
RNA: GGGAGUUCUACAGUCCGACGAUCACUUGUCCAGCCUUUUGAAGAGCUCGUUUUUCACCUUCAGAUUCUCCACGAUGGCUUCCACCACCAAGUCUGUGCUGUGGACAACGGAGGCUGCAUCCGUGCUGGUCGCUAUGGUGCUCACAACAGAGGAUUGAGCAUCA
B21: chr10:82349929:82349930:+_ENSMUSG00000020250_ENSMUST00000020484|mus_mus|FALSE|FALSE (ssRNA)
RNA: GGGAGUUCUACAGUCCGACGAUCAUAACAUUUGUUGUUAUCCCGGGAUGGGACUGUCCAUUCCAAUGGCCAAAAGAAACUAUGGUAAACUUCAAUAUUUUCUUCCCCAAAUUUCUCUACGGCUUUUUCUUCAGAGAGGCCACACAACAGAGGAUUGAGCAUCA
B22: chr2:66073698:66073699:-_ENSMUSG00000034848_ENSMUST00000102718|mus_hu|FALSE|FALSE (ssRNA)
RNA: GGGAGUUCUACAGUCCGACGAUCUUGCUGGAUUUCAUUUAAAAAUUCUAGCUGCUGAUCUGCAUCCUGUAAUUGCCCUUCUAUCAACUGACAUUGGAUAAAUCCAACUAGGGCAGACACACUAGUCUCAUCAAGUGUCAUGGCCAACAGAGGAUUGAGCAUCA

Biological target: T1, UNK ZnF1-3
Experiment: nsRBNS (natural sequence RNA bind-n-seq); RBNS binding buffer (assumed for nsRBNS): 25 mM Tris pH 7.5, 150 mM KCl, 3 mM MgCl2, 0.01% Triton X-100, 500 ug/ml BSA, 20 U/ml SUPERase-In, 4 C; UNK is unkempt and MSI1 is Musashi-1; names of the RNAs are library labels; protein concentration not given here; high values mean tight binding

Binder | binding signal [enrichment R]
B1 | 1.42
B2 | 0.317
B3 | 1.44
B4 | 1.29
B5 | 0.818
B6 | 0.775
B7 | 1.01
B8 | 2.02
B9 | 1
B10 | 1.19
B11 | 0.916
B12 | 0.695
B13 | 0.756
B14 | 0.586
B15 | 1.48
B16 | 0.926
B17 | 0.74
B18 | 1.37
B19 | 1.02
B20 | 1.01
B21 | 0.633
B22 | 0.843
